Target: T1, recombinant CD47 (recCD47), SinoBiological 12283-H27H-B, biotinylated (human, UniProt Q08722 in part, biotinylated (AVI-tag))
T1 construct: Bought protein, 17 kDa; At 17 kDa it can only be a part of it; also called recombinant biotinylated CD47; not shown: C-terminal His- and AVI-tag
Test: SPR Biacore S200, single-cycle, recCD47 on SA chip 100 RU, CO-1bi as analyte, 25 C, 1:1 model

T1 sequence (Q08722 19-139 limits assumed): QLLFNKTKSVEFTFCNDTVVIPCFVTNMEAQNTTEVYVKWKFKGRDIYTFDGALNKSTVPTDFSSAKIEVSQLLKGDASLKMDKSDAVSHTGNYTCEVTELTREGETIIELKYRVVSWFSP

- Kd: 0.04 nM
- koff: 0.00019 s⁻¹
- kon: 4.9e+06 M⁻¹ s⁻¹
B1: CO201-scFv-Fc-bi (bivalent scFv-Fc fusion protein of CO201 with IgG4 Fc) (Fc fusion)
chain: QVQLVQSGSELKKPGASVKVSCKASGYTFTNFGMHWVRQAPGQGLEWMGWINTYTGEPTYTDDFKGRFVFSLDTSVSTAYLQISSLKAEDTAVYYCARGDYRYGDSWGQGTTVTVSSGGGGSGGGGSGGGGSDIVMTQTPLSLSVTPGQPASISCRSSQSLVHSNGKTYLHWYLQKPGQPPQLLIYRVSNRFSGVPDRFSGSGSGTDFTLKISRVEAEDVGVYYCSQSTHVPFTFGQGTKLEIKSKYGPP[in this place human IgG4 Fc]
notes: One chain = CO201 scFv (VH - GS linker - VL) - hinge - CH2 - CH3; the chains dimerise through the Fc to a bivalent molecule (103.5 kDa); also called CO-1bi; CO-1 bi
